Measurements reported in paper PMC7417631.
Results are given in words; binding and its absence hold for the method and conditions named. In cells and extracts the contact can be indirect. Some results given as binding are weak or reduced against the parent protein; the word gives no strength. For part of these data: Sequences can lack the tags named with a protein.

Sequences of proteins named here, by UniProt entry; tags and fusion partners are left off. Residues count along the entry.
UniProt P25799, residues 1-431: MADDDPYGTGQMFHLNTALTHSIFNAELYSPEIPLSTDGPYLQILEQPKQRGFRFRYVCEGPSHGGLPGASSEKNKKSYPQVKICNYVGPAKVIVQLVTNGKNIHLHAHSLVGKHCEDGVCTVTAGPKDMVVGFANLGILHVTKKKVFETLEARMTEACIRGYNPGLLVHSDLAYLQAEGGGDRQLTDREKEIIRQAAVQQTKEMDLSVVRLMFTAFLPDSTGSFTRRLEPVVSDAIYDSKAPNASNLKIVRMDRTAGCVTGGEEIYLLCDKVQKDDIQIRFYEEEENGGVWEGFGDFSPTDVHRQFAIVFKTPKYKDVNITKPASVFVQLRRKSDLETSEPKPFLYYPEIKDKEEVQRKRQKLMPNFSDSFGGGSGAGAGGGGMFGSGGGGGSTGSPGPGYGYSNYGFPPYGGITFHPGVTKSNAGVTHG
UniProt Q04207: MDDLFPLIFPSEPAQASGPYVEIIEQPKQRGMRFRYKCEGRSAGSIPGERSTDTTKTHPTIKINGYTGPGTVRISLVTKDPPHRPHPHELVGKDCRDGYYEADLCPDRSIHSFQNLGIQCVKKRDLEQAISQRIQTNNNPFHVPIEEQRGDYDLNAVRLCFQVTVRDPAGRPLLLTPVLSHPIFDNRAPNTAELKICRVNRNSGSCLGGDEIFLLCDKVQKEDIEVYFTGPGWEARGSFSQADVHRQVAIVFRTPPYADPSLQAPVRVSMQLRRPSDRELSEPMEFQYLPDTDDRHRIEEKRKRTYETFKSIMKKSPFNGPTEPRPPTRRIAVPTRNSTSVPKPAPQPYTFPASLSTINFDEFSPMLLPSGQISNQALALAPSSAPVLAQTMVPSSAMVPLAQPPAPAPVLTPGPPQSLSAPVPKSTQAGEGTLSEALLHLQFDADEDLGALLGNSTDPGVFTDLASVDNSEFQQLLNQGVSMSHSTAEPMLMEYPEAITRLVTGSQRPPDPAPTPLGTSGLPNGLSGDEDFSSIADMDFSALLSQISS

Legend:
[1] = target: c-Myc-tagged PDLIM7 (wild type) (mouse) (UniProt Q3TJD7); experiment: co-IP; 293T cells transfected with c-Myc-PDLIM7 and FLAG-p65 or FLAG-p50; RIPA lysate; IP with anti-c-Myc agarose overnight at 4°C, four washes with RIPA; blot anti-FLAG (Figure 2A)
[2] = target: T1, c-Myc-tagged PDLIM2 (wild type, expressed without transfected PDLIM7) (mouse) (UniProt Q8R1G6); experiment: co-IP; Supplementary Figures 6A and 6C; PDLIM2 wild type or K0 and p65 in 293T cells, also after PDLIM7-specific siRNA; format and tags not shown
T1 sequence: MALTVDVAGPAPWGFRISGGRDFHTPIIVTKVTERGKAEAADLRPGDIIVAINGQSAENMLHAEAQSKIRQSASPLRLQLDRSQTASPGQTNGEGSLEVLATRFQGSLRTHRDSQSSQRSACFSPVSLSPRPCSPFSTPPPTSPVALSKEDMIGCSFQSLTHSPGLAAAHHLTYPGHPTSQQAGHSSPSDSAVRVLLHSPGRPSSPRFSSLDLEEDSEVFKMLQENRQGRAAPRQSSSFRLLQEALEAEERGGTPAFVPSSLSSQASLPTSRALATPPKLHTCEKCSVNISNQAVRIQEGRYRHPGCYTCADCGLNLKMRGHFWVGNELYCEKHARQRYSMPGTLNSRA

[3] = target: c-Myc-tagged ΔLIM3 PDLIM7 mutant (mouse) (UniProt Q3TJD7); experiment: co-IP; Supplementary Figure 2D; PDLIM7 ΔLIM3 and p65; format not shown (293T cells and RIPA lysates by the general methods)
[4] = target: T1, c-Myc-tagged PDLIM2 (wild type, expressed without transfected PDLIM7) (mouse); experiment: co-IP; 293T cells first transfected with control siRNA, then with HA-p62 without or with c-Myc-PDLIM2; IP anti-c-Myc, blot anti-HA (Figure 6H)
[5] = target: T1, c-Myc-tagged PDLIM2 (wild type, expressed without transfected PDLIM7) (mouse); experiment: co-IP; 293T cells transfected with a c-Myc-tagged and a His-tagged protein; RIPA lysate; IP anti-c-Myc, blot anti-His (Figures 4B, 4C)
[6] = target: T1, c-Myc-tagged PDLIM2 (wild type, expressed without transfected PDLIM7) (mouse); experiment: co-IP; 293T cells transfected with c-Myc-PDLIM2 without or with FLAG-PDLIM7, together with His-p62 or ΔUBA; IP anti-c-Myc, blot anti-His (Figure 6E)
[7] = target: endogenous PDLIM7 of RAW264.7 cells (mouse (endogenous in RAW264.7)) (UniProt Q3TJD7); experiment: co-IP; endogenous proteins; RAW264.7 cell lysates immunoprecipitated with anti-PDLIM7 or rabbit IgG, blot with anti-PDLIM2 antiserum (Figure 4A)
[8] = target: c-Myc-tagged ΔLIM3 PDLIM7 mutant (mouse) (UniProt Q3TJD7); experiment: co-IP; 293T cells transfected with a c-Myc-tagged and a His-tagged protein; RIPA lysate; IP anti-c-Myc, blot anti-His (Figures 4B, 4C)
[9] = target: c-Myc-tagged PDLIM7 (wild type) (mouse) (UniProt Q3TJD7); experiment: as above
[10] = target: c-Myc-tagged ΔLIM2/3 PDLIM7 mutant (mouse) (UniProt Q3TJD7); experiment: as above
[11] = target: T2, c-Myc-tagged ΔPDZ PDLIM7 mutant (mouse) (UniProt Q3TJD7); experiment: as above
T2 sequence: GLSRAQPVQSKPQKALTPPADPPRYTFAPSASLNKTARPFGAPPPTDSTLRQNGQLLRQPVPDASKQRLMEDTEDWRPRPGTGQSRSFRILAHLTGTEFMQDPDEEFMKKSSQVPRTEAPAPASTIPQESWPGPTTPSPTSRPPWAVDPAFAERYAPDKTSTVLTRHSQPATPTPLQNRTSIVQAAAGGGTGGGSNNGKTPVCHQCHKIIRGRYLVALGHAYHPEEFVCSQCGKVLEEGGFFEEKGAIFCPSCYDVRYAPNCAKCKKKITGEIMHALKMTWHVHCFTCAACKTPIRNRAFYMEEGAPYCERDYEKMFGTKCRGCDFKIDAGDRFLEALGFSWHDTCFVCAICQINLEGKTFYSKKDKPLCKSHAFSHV

## FLAG-tagged p50 subunit of NF-κB (from UniProt P25799 1-431)
[1]
  binding: no binding

## FLAG-tagged p65 subunit of NF-κB (from UniProt Q04207 1-549)
[1]
  binding: binds
[2]
  binding: binds
[3]
  binding: binds

## HA-tagged p62/Sqstm1 (from UniProt Q64337-1 1-442)
[4]
  binding: binds

## His-tagged PDLIM7 (from UniProt Q3TJD7-1 1-457)
[5]
  binding: binds

## His-tagged p62/Sqstm1 (from UniProt Q64337-1 1-442)
[6]
  binding: binds weakly

B1: endogenous PDLIM2 of RAW264.7 cells (protein, UniProt Q8R1G6 1-349)
chain: T1 sequence
[7]
  binding: binds

B2: His-tagged PDLIM2 (protein, UniProt Q8R1G6 1-349)
chain: T1 sequence
[8]
  binding: binds
[9]
  binding: binds
[10]
  binding: no binding
[11]
  binding: binds
